In PubChem BioAssay AID588855 (National Center for Advancing Translational Sciences (NCATS), 2011):
Where “and” joins values, the source holds several entries; their conditions need not be identical. Identical values can stand only once. The campaign covered roughly 410,000 compounds. About 5,000 (1.2%) were called active. The inconclusive results got no clear call from the source; some entries with a clear call stand among them for comparison. Calls come from the whole dose curve; as a rule, active = well fitted inhibition curve with a large enough effect; inconclusive = small, poorly fitted or top-dose-only effect; inactive = no such curve, though single readings can be large or run the other way. Potencies beside an inconclusive call are fits to weak or partial responses and may not hold up.

Test: qHTS for Inhibitors of TGF-b; note: nearly all actives have a fitted effect of over 65% in size
Details: HepG2 CAGA-GFP TGF-b/SMAD3 reporter, GFP fluorescence, 18 h, TGF-beta stimulated, 500 pg/mL final; series mostly up to 46.1 µM; activity, negative = inhibition: at the top concentration
In short: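 TGF-beta reporter screen: HEPG2 CAGA-GFP, 1% FBS, 500 pg/mL TGF-beta final, 18 h; per-cell GFP summed per well; curves fitted and categorized by class.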
% is set by controls: 0 for no effect and ±100 for the full control effect; potency is the fitted concentration of half-maximal effect; tags give direction and shape of the fitted curve.

Row | Structure (SMILES) | Potency | activity, negative = inhibition
1 | O=c1[nH]c2ccccc2nc1/C=C/c1ccc(O)cc1 | inconclusive: 35.5 µM [inhibitor, partial curve, poor fit] | 
2 | O=S(=O)(c1ccc(S(=O)(=O)N2CCN(C/C=C/c3ccccc3)CC2)cc1)N1CCCC1 |  | inactive: -4.26%
3 | Cc1ccc(NC(CNS(=O)(=O)c2ccc(Cl)cc2)c2ccccc2)cc1 (stereo unspecified) | inconclusive: 14.1 µM [inhibitor, partial curve, poor fit] and inconclusive: 15.8 µM [inhibitor, partial curve, poor fit] | 
4 | CCSc1nc2c(c(=O)n1Cc1ccccc1)SC(C)C2 (stereo unspecified) | inconclusive: 35.5 µM [inhibitor, single point] | 
5 | CCCOc1ccc(C2C(=O)N(C3CCCCC3)CC(=O)N2CCCOCC)cc1OC (stereo unspecified) | inconclusive: 0.1 µM [inhibitor, full curve, poor fit] | 
6 | COC(=O)c1ccc(OCC2NCCc3cc(OC)c(OC)cc32)cc1 (stereo unspecified) |  | inactive: -2%
7 | CC1=C(C(=O)Nc2ccccc2F)C(c2ccsc2)C2=C(CC(C)(C)CC2=O)N1 (stereo unspecified) |  | inactive: -26.8%
8 | Cc1cccc(N(C)c2nc3ccc(C)cc3n3nnnc23)c1 |  | inactive: -3.67%
9 | C=CCN(Cc1cc(OC)ccc1OC)C(=O)c1cc2ccc(OC)cc2[nH]1 | inconclusive: 14.1 µM [inhibitor, single point] | 
10 | NC(c1csc(NC(=O)Nc2ccccc2)n1)C1CCCCC1 (stereo unspecified) | inconclusive: 22.4 µM [inhibitor, single point] | 
11 | CCC(=O)N1c2ccc(S(=O)(=O)N3CCN(c4ccccc4Cl)CC3)cc2CC1C (stereo unspecified) | inconclusive: 10 µM [inhibitor, partial curve] and inconclusive: 6.31 µM [inhibitor, partial curve, poor fit] | 
12 | COc1ccc(/C=N/NC(=O)c2cc(-c3ccccc3)nc3ccccc23)c(OC)c1 |  | inactive: -12.7%
13 | Cc1cccc(N2CCN(C(=O)C3CC(=O)N(C4CCCC4)C3)CC2)c1C (stereo unspecified) | inconclusive: 6.31 µM [inhibitor, single point] | 
14 | CCCCCCC(=O)Nc1nc(C)c(-c2csc(Nc3cc(OC)ccc3OC)n2)s1 |  | inactive: -2.16%
15 | COC(=O)[C@@]12CCCN1[C@H](c1ccc(-c3cccc(Cl)c3)cc1)[C@H]1C(=O)N(C)C(=O)[C@H]12 | inconclusive: 35.5 µM [inhibitor, partial curve, poor fit] | 
16 | CC(C)c1ccccc1NC(=O)COC(=O)c1c2c(nc3ccccc13)CCN(Cc1ccccc1)C2 | inconclusive: 35.5 µM [inhibitor, single point] | 
17 | CC(=O)c1cccc(NS(=O)(=O)c2ccc(NC(=O)N3CCCCC3)cc2)c1 |  | inactive: -16.1%
18 | Cc1ccc(C(=O)CSc2nnc3ccc4ccccc4n23)cc1 | inconclusive: 5.62 µM [inhibitor, single point] | 
19 | Nc1ccccc1C(=O)NNc1c2ccccc2nc2ccccc12 | inconclusive: 35.5 µM [inhibitor, single point] | 
20 | Cc1cc(C)nc(Nc2nc(=O)c3ccccc3s2)n1 | inconclusive: 22.4 µM [inhibitor, single point] | 
21 | CN(C)c1ccc(-c2ccc([C@H]3[C@@H]4C=CCC[C@@]4(C)C(=O)N3Cc3ccccc3)c(F)c2)cc1 | inconclusive: 20 µM [inhibitor, single point] | 
22 | Cc1cc(C)n2nc(SCC(=O)Nc3ccc(F)c(F)c3F)nc2n1 |  | inactive: -1.96%

Row | Structure (SMILES) | Potency | activity, negative = inhibition
23 | COc1ccc(N2CCN(C(=O)c3cc(-c4ccc(F)cc4)[nH]c3C)CC2)cc1 | inconclusive: 35.5 µM [inhibitor, single point] | 
24 | Cc1ccc(/C=C/C(=O)Nc2ccc([N+](=O)[O-])cc2)o1 | inconclusive: 28.2 µM [inhibitor, single point] | 
25 | Cc1ccc(-c2nc(N3CCOCC3)sc2C(=O)N2CCOCC2)cc1 |  | inactive: -4.13%
26 | CCOC(=O)Cc1csc(NC(=O)c2ccc(Cl)s2)n1 | inconclusive: 10 µM [inhibitor, partial curve] | 
27 | Nc1cc(N)c(OCC(F)(F)F)cc1OCC(F)(F)F | inconclusive: 22.4 µM [inhibitor, single point] | 
28 | C=CCNc1nc(NCc2ccc(N(C)C)cc2)c2sc(-c3ccccc3)cc2n1 | inconclusive: 22.4 µM [inhibitor, single point] | 
29 | Cc1[nH]c2ccccc2c1/C=N/NC(=O)c1cc(C(C)(C)C)[nH]n1 |  | inactive: 4.32%
30 | N#C/C(=C\c1cccnc1)c1ccccc1[N+](=O)[O-] | inconclusive: 35.5 µM [inhibitor, single point] | 
31 | O=C(NCc1ccccc1)c1ccc(Oc2ccc(C(=O)NCc3ccccc3)cc2)cc1 |  | inactive: -2.77%
32 | O=[N+]([O-])c1cnc(Sc2ccncn2)s1 | active: 2.24 µM | 
33 | COc1ccc(-c2oc3ccc(N4CCOCC4)cc3c2C#CC2(O)CCCCC2)cc1 | inconclusive: 31.6 µM [inhibitor, single point] | 
34 | CC(=O)c1c(C)[nH]c(C(=O)NNC(=O)COc2ccc(Cl)cc2C)c1C | inconclusive: 17.8 µM [inhibitor, single point] | 
35 | O=C(Nc1ccccc1)Nc1nc(-c2ccc(F)c(F)c2)cs1 | inconclusive: 5.62 µM [inhibitor, single point] | 
36 | CCOC(=O)c1cnc(NCc2ccc(Cl)cc2)c2ccccc12 | inconclusive: 12.6 µM [inhibitor, partial curve, poor fit] | 
37 | CC(=O)Nc1ccc(NC(=O)CN(C)S(=O)(=O)c2ccc3c(c2)CCC(=O)N3)cc1 |  | inactive: 15.6%
38 | Cn1ccc2c(-c3ccc(F)cc3F)cc3c(c21)C1CCC3C1 (stereo unspecified) | inconclusive: 11.2 µM [inhibitor, partial curve] | 
39 | Cn1c(CN2CCCCC2)nc2cc(NC(=O)c3ccc(Cl)cc3)ccc21 | inconclusive: 14.1 µM [inhibitor, partial curve, poor fit] | 
40 | Cc1ccc2nc(NC(=O)CS(=O)(=O)Cc3ccccc3)sc2c1 |  | inactive: 34.2%
41 | COc1ccc(/C=N/Nc2nnc(C)n2N)cc1OC(C)=O | active: 10 µM | 
42 | Cc1ccc(-n2c(C)cc(C3N=C(N)Nc4nc5ccccc5n43)c2C)c(C)c1 (stereo unspecified) | inconclusive: 35.5 µM [inhibitor, single point] | 
43 | CCOc1ccccc1NC(=O)N1CCC(c2nc3ccc(C)cc3[nH]2)CC1 | inconclusive: 6.31 µM [inhibitor, partial curve] | 
44 | CCn1c(=O)cc(OCC(=O)Nc2ccccc2Cl)c2ccccc21 |  | inactive: 2.31%

Row | Structure (SMILES) | Potency | activity, negative = inhibition
45 | Cc1ccccc1CSc1nnc(CCCCCNC(=O)OC(C)(C)C)o1 | inconclusive: 35.5 µM [inhibitor, partial curve, poor fit] | 
46 | CCOc1ccc(CCNC(=O)c2nn(-c3ccc(OC)cc3)c(=O)c3c2c2ccccc2n3C)cc1OCC | inconclusive: 35.5 µM [inhibitor, single point] | 
47 | CC(C)C[C@H](NC(=O)c1nc[nH]c1C(=O)N[C@@H](CC(C)C)C(=O)OC(C)(C)C)C(=O)OC(C)(C)C | inconclusive: 11.2 µM [inhibitor, partial curve, poor fit] | 
48 | C[C@H](CO)N1C[C@H](C)[C@@H](CN(C)CC2CCOCC2)Oc2cc(C#Cc3ccccc3F)ccc2S1(=O)=O | inconclusive: 25.1 µM [inhibitor, partial curve, poor fit] | 
49 | O=C(O)CCc1ccc(-c2ccc(Cl)cc2)n1-c1cccc(C(F)(F)F)c1 | inconclusive: 35.5 µM [inhibitor, single point] | 
50 | COc1ccccc1-n1c(CCn2nc(C)c(Br)c2C)n[nH]c1=S | inconclusive: 2.51 µM [inhibitor, full curve, poor fit] | 
51 | CCNc1ccc(C2(O)C(=O)c3ccccc3C2=O)cc1 |  | inactive: 22%
52 | NNC(=O)c1[nH]c2ccc(Br)cc2c1-c1ccccc1 | inconclusive: 10 µM [inhibitor, partial curve, poor fit] | 
53 | O=C1C=C(c2cccc(Br)c2)C[C@@H](c2ccc(F)cc2)C1 | inconclusive: 3.55 µM [inhibitor, full curve] | 
54 | COCCNc1nc(-c2cc(C)n(CCc3ccc(OC)cc3)c2C)cs1 | inconclusive: 35.5 µM [inhibitor, single point] | 
55 | CC1(C(=O)NCc2ccc(C(F)(F)F)cc2)CCN1Cc1cc2ccccc2o1 (stereo unspecified) | inconclusive: 22.4 µM [inhibitor, single point] | 
56 | Cc1cccc(OCCCCn2c(C3CC(=O)N(c4ccc(C)cc4C)C3)nc3ccccc32)c1 (stereo unspecified) | active: 10 µM | 
57 | O=C(c1ccc(F)c(S(=O)(=O)N2CCOCC2)c1)N1CCN(c2ncccn2)CC1 |  | inactive: -1.07%
58 | COc1ccc2nc(N/C(N)=N/C(=S)Nc3c(C)cccc3C)nc(C)c2c1 | inconclusive: 12.6 µM [inhibitor, partial curve, poor fit] | 
59 | O=C(CCn1c(=O)c2cccn2c2cccnc21)N1CCN(c2ccc(Cl)cc2)CC1 | inconclusive: 35.5 µM [inhibitor, single point] | 
60 | COC(=O)c1ccccc1NC(=O)CCCOc1cc(=O)n(C)c2ccccc12 |  | inactive: 2.21%
61 | COc1ccc(-c2[nH]ncc2/C=C(/C#N)C(=O)NC2CCCCCC2)cc1 |  | inactive: 0%
62 | Cc1cccc(-c2oc3ccc(-c4ccc5c(c4)OCO5)cc3c2-c2ccc(OC3CCCCO3)cc2)c1 (stereo unspecified) |  | inactive: 10.1%
63 | COc1ccc(OC)c(C(c2nnnn2Cc2ccccc2)N2CCN(C3CCCCC3)CC2)c1 (stereo unspecified) |  | inactive: 12.8%
64 | COc1ccc(Nc2c3c(nc4ccccc24)CCC3)cc1 | active: 11.2 µM | 
65 | C/C(=N\Nc1ccc(Cl)c(C(=O)O)c1)c1cc2ccccc2o1 | inconclusive: 35.5 µM [inhibitor, single point] | 
66 | CN(C)CCCN1c2ccccc2Sc2ccc3ccccc3c21 | inconclusive: 25.1 µM [inhibitor, single point] | 
